Data on 19 variants can be found in the RNAGym collection of RNA variant scans (doi:10.1073/pnas.2313332121).

Variants at the background level are over-represented here.

B1: TPR 5TU (parent)
chain: GGAUCUUCUCGAUCUAACAAAAAAGACAAAUCUGCCACAAAGCUUGAGAGCAUCUUCGGAUGCAGAGGCGGCAGCCUUCGGUGGCGCGAUAGCGCCAACGUUCUCAACUAUGACACGCAAAACGCGUGCUCCGUUGAAUGGAGUUUAUCAUG

The variants in the series derive from B1. The series is described as follows: polymerase ribozyme fitness, log enrichment relative to wild type (log ratio); higher = more active; in vitro selection for triplet polymerase activity. In short, it runs like this: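 Input and output libraries were sequenced on Illumina after a single in vitro selection round, run in triplicate on PCR-built, transcribed mutant libraries of each subunit of a heterodimeric triplet polymerase ribozyme. Selection annealed libraries to a biotinylated primer, the partner subunit and triplets, incubated them frozen at −7 °C, then gel-excised extended constructs for streptavidin-bead capture and RT-PCR. Genotypes with ≥10 input reads and ≥1 read per output were kept. Fitness is the logarithm, taken in base 2, of genotype enrichment divided by wild-type enrichment, using inverse-variance-weighted replicate averages.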
For GGAUCUUCUCGAUCUAACAAAAAAGACAAAUCUGCCACAAAACUUGAGAGCAUCUUUUGAUGCAGAGGCGGCAGCCUUCGGUGGCGCGAUAGCGUCAACGUUCUGAACUAUGACACCCAAAACGCGUGCUCCGUUGAAUGGAGUUUAUCACG [G42A C57U G58U C95U C105G G117C U151C], the “polymerase ribozyme fitness (log ratio)” value was at most -4.2.

For the variant GGAUCUUCUCGAUCUAACAAAAAAGACAAAUCUGCCACAAAACUUGAGAGCAUCUUCGGAUGCAGAGGCGGCAGCCUUCGGUGGGGCGAUAGCGCCAACGUUCUCAACUAUGACACGCAAAACGCGUGCUCCGUUGAAUGGAGUUUAUCAUG [G42A C85G], the “polymerase ribozyme fitness (log ratio)” value is at most -4.2. Turning to GGAUCUUCUCGAUCUAACAAAAAAGACAAAUCUGCCACAAAACUUGAGAGCAUCUUCGGAUGUAGAGACGGCAGCCUUCAGUGGGGCGAUAGCGCCAACGUUCUCAACUAUGACACGCAAAACGCAUGCUCCGUUGAAUGGAGUUUAUCAUG [G42A C63U G68A G80A C85G G126A], the “polymerase ribozyme fitness (log ratio)” value was at most -4.2. Consider GGAUCUUCUCGAUCUAACAAAAAAGACAAAUCUGCCACAAAACUUGAGAGUAUCUUCGGAUGCCGAGGCGGCAGCCUUCAGUGGCGCGAUAGCGCCAACGUUCUCAACUAUGACACGCAAAACGCGAGCUCCGUUGAAUGGAGUUUAUCAUG [G42A C51U A64C G80A U127A], for which the “polymerase ribozyme fitness (log ratio)” value was at most -4.2. As to GGAUCUUCUCGAUCUAACAAAAAAGACAAAUCUGCCACAAAACUUGAGAGCAUCUUCGGAUGCAGAGGCGGCAGGCUUCGGUGGCGCGAUAGCGCGAACGUUCUCAACUAUGACACGCAAAACGCGUGCUCCGUUGAAUGGAGUUUAUCAUG [G42A C75G C96G], the “polymerase ribozyme fitness (log ratio)” value was at most -4.2. Consider GGAUCUUCUCGAUCUAACAAAAAAGACAAAUCUGCCACAAAACUUGAGAGCAUCUUCGGAUGCAGAGGCGGCAGCCUUCGGUGGCGAGAUAGCGCCAACGUUCUCAACUAUGACUCGCAAAACGCGUGCUCCGUUGAAUGGAGUUUAUCAUG [G42A C87A A115U], for which the “polymerase ribozyme fitness (log ratio)” value is at most -4.2. Then GGAUCUUCUCGAUCUAACAAAAAAGACAAAUCUGCCACAAAACUUGACAGCAUCUUCGGAUGCAGAGGCAGCAGCCUUCGGUGGCGCGAUAGAGCCAACGUUCUAAUCUAUGACACGCAAAACGCGUGCUCCGUUGAAUGGAGUUUAUCAUG [G42A G48C G70A C93A C105A A107U], with at most -4.2; and GGAUCUUCUCGAUCUAACAAAAAAGACAAAUCUGCCACAAAACUUGAGAGCAUCUUCGGAUGUAGAGGCUGCAGCCUUCGGUGGCGCGAUAGCGCCAACGUUCUCAACUAUGACACGCAAAACGCGUGCUCCGUUGAAUGGAUUUUAUCAUG [G42A C63U G70U G143U], with at most -4.2; and GGAUCUUCUCGAUCUAACAAAAAAGACAAAUCUGCCACAAAACUUGACAGCAUCUUCGGAUGCAGAGGCGGCAGCCUUCGGUGGCGCGAUAGCGCCAACGUUCUCAACUAUGACACGCAAAACGCGUGCUCCGUUGAAUGGAGUGUAUCAUG [G42A G48C U145G], with at most -4.2.

Turning to GGAUCUUCUCGAUCUAACAAAAAAGACAAAUCUGCCACAAAACUUGAGAGCAUCUUCGGAUGCAGAGGCGGCAGCCUUCGGUGGCGCGAUAGUGCCAACGUUCUCAACUAUGACAAGCAAAACGCGUGCUCCGUUGAAUGGAGUUUAUCGUG [G42A C93U C116A A150G], the “polymerase ribozyme fitness (log ratio)” value was at most -4.2. On to GGAUCUUCUCGAUCUAACAAAAAAGACAAAUCUGCCACAAAACUUGAGAGCAUCUUCGGAUGCAGAGGCGGCAGCCUUCGGUGGCGUGAUAGCGCCAACUUUCUCAACUCUGACCCGCAGAACGCGUGCUCCGAUGAAUGGAGUUUAUCAUG [G42A C87U G100U A110C A115C A120G U134A], for which the “polymerase ribozyme fitness (log ratio)” value was at most -4.2. With GGAUCUUCUCGAUCUAACAAAAAAGACAAAUCUGCCACAAAACUUGAGAGCAUCUUCGGAUGAAGAGGCGGCAGCCUUCGGCGGCGCGAUAGCGGCAACGUUUUCAACUAUGAGACGUAAAACGCGUGCUCCGUUGAAUGGAGUUUAUCAUG [G42A C63A U82C C95G C103U C114G C118U] the figure was at most -4.2; with GGAUCUUCUCGAUCUAACAAAAAAGACAAAUCUGCCACAAAACUUGAGAGCAUCUUCGGAUGCAGAGGCGGCAGCCUUCGGUGGGGCAAUAGCCCCAACGUUCUCAACUAUGACACGCAAAACGCGUGCUCGGUUGAAUGGAGUUUAUCCUG [G42A C85G G88A G94C C132G A150C], at most -4.2; with GGAUCUUCUCGAUCUAACAAAAAAGACAAAUCUGCCACAAAACUUGAGAGCAUCUUCGGAUGCAGAGGCGGCAGCCUUCGGUGGCGUGAUAGCGCCAACGUUCUCAACUAUGACACGCAAAACGCGUGCUCCGUUGAAUGGUGUUUAUCAUG [G42A C87U A142U], at most -4.2. With GGAUCUUCUCGAUCUAACAAAAAAGACAAAUCUGCCACAAAACUUGAGAGCAUCUUAGGAUGCAGAGGCGGCAGCUUUAGGUGGAGCGAUAGCGCCAACGUUCUCAACUAUGACACGCAAAACGCGUGCUCCGUUGAAUGGAGUUUAUCAUG [G42A C57A C76U C79A C85A] the figure was at most -4.2; with GGAUCUUCUCGAUCUAACAAAAAAGACAAAUCUGCCACAAAACUUGAGAGCAUCUUCGGAUGCAGAGGCGGCAGUGUUCGGUGGCGCGAUAGCGCCAACGUUCUCAACUAGGACACGCAAAACGCGUGCACCUUUGAAUGGAGUUUAUCAUG [G42A C75U C76G U111G U130A G133U], at most -4.2.

As for GGAUCUUCUCGAUCUAACAAAAAAGACAAAUCUGCCACAAAACUUGAGAGCAUCUUCGGAUGCAGAGGCGGCAGCCUUCGGUGGCGCGAUAGCGCAAACGUUCUCAACUAUGACACGCAAAGCGCGUGCUCCGUUGAGUGGAGUGUAUCAUG [G42A C96A A122G A138G U145G], the “polymerase ribozyme fitness (log ratio)” value is at most -4.2.

Consider GGAUCUUCUCGAUCUAACAAAAAAGACAAAUCUGCCACAAAACUUGAAAGCAUCUUCGGAUGCAGAGGCGGCAGCCUUCGGUGGCGCGAUAGCGCCGACGUUCUCAACUAUGACACGCAAAACGCGUGCUCCGUUGAUUGGAGUUUAUCAUG [G42A G48A A97G A138U], for which the “polymerase ribozyme fitness (log ratio)” value was at most -4.2. Then GGAUCUUCUCGAUCUAACAAAAAAGACAAAUCUGCCACAAAAGUUGAGAGCAUCUUCGGAUGCAGAGGCGGCAGCCUUCGGUGGCGCGAUCGCGCCAACGUUCUCAACUAUGACAUGCAAAACGCGUGCUCCGUUGAAUGGAGUUCAUCAUG [G42A C43G A91C C116U U146C], with at most -4.2.
